# Some of the results follow.
# B1: Surfactant Protein D (Human); Neck + Carbohydrate Recognition Domain (NCRD) (Homo sapiens) (protein)
# chain: MLLFLLSALVLLTQPLGYLEAEMKTYSHRTMPSACTLVMCSSVESGLPGRDRDGREGPRGEKGDPGLPGAAGQAGMPGQAGPVGPKGDNGSVGEPGPKGDTGPSGPPGPPGVPGPAGREGALGKQGNIGPQGKPGPKGEAGPKGEVGAPGMQGSAGARGLAGPKGERGVPGERGVPGNTGAAGSAGAMGPQGSPGARGPPGLKGDKGIPGDKGAKGESGLPDVASLRQQVEALQGQVQHLQAAFSQYKKVELFPNGQSVGEKIFKTAQFVKPFTEAQLLCTQAGGQLASPRSAAENAALQQLVVAKNEAAFLSMTDSKTEGKFTYPTGESLVYSNWAPGEPNDAGGSEDCVEIFTNGKWNDRACGEKRLVVCEF
# Experiments:
# Test in all cases: glycan array binding signal (z-score within array); higher = stronger binding
# Conditions in all cases: glycan notation: IUPAC condensed, linker removed; mutation: D325A
# [1] = target: Man(a1-3)[Man(a1-6)]Man(a1-6)[Man(a1-2)Man(a1-3)]Man(b1-4)GlcNAc(b1-4)GlcNAc
# Method in brief: (§1)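 The Consortium for Functional Glycomics database supplied 3228 glycan arrays, of which those lacking an available protein sequence were dropped. The binding signal, a within-array Z-score, was averaged across arrays of the same protein sequence and across linkers. Negative scores can be read as non-binding.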
# [2] = target: Man(a1-3)[Man(a1-6)]Man(a1-6)[Man(a1-3)]Man
# Method in brief: as §1
# [3] = target: Man(a1-3)[Man(a1-6)]Man(a1-6)[Man(a1-3)]Man(b1-4)GlcNAc(b1-4)GlcNAc
# Method in brief: as §1
# [4] = target: Man(a1-3)[Man(a1-6)]Man(b1-4)GlcNAc(b1-4)GlcNAc
# Method in brief: as §1
# Man(a1-6)Man = target: Man(a1-6)Man
# Method in brief: as §1
# Man(b1-4)GlcNAc = target: Man(b1-4)GlcNAc
# Method in brief: as §1
# Neu5Ac(a2-3)Gal = target: Neu5Ac(a2-3)Gal
# Method in brief: as §1
# [5] = target: Neu5Ac(a2-3)Gal(b1-3)GalNAc
# Method in brief: as §1
# [6] = target: Neu5Ac(a2-3)Gal(b1-3)GalNAc(b1-3)Gal(a1-4)Gal(b1-4)Glc
# Method in brief: as §1
# [7] = target: Neu5Ac(a2-3)Gal(b1-3)GalNAc(b1-3)Gal(b1-4)GlcNAc
# Method in brief: as §1
# [8] = target: Neu5Ac(a2-3)Gal(b1-3)GalNAc(b1-4)[Neu5Ac(a2-3)]Gal(b1-4)Glc
# Method in brief: as §1
# [9] = target: Neu5Ac(a2-3)Gal(b1-3)GalNAc6S
# Method in brief: as §1
# [10] = target: Neu5Ac(a2-3)Gal(b1-3)GlcNAc
# Method in brief: as §1
# [11] = target: Neu5Ac(a2-3)Gal(b1-3)GlcNAc(b1-3)Gal(b1-3)GlcNAc
# Method in brief: as §1
# [12] = target: Neu5Ac(a2-3)Gal(b1-3)GlcNAc6S
# Method in brief: as §1
# [13] = target: Neu5Ac(a2-3)Gal(b1-3)[Fuc(a1-4)]GlcNAc
# Method in brief: as §1
# [14] = target: Neu5Ac(a2-3)Gal(b1-3)[Fuc(a1-4)]GlcNAc(b1-3)Gal(b1-4)[Fuc(a1-3)]GlcNAc
# Method in brief: as §1
# [15] = target: Neu5Ac(a2-3)Gal(b1-3)[Neu5Ac(a2-3)Gal(b1-4)]GlcNAc
# Method in brief: as §1
# [16] = target: Neu5Ac(a2-3)Gal(b1-3)[Neu5Ac(a2-6)]GalNAc
# Method in brief: as §1
# Neu5Ac(a2-3)Gal(b1-4)Glc = target: Neu5Ac(a2-3)Gal(b1-4)Glc
# Method in brief: as §1
# [17] = target: Neu5Ac(a2-3)Gal(b1-4)GlcNAc
# Method in brief: as §1
# [18] = target: Neu5Ac(a2-3)Gal(b1-4)GlcNAc(b1-2)Man(a1-3)[GlcNAc(b1-2)Man(b1-4)GlcNAc(b1-2)Man(a1-6)]Man(b1-4)GlcNAc(b1-4)GlcNAc
# Method in brief: as §1
# [19] = target: Neu5Ac(a2-3)Gal(b1-4)GlcNAc(b1-2)Man(a1-3)[Neu5Ac(a2-6)Gal(b1-4)GlcNAc(b1-2)Man(a1-6)]Man(b1-4)GlcNAc(b1-4)GlcNAc
# Method in brief: as §1
# [20] = target: Neu5Ac(a2-3)Gal(b1-4)GlcNAc(b1-3)Gal(b1-3)GlcNAc
# Method in brief: as §1
# [21] = target: Neu5Ac(a2-3)Gal(b1-4)GlcNAc(b1-3)Gal(b1-4)GlcNAc
# Method in brief: as §1
# [22] = target: Neu5Ac(a2-3)Gal(b1-4)GlcNAc(b1-3)Gal(b1-4)GlcNAc(b1-3)Gal(b1-4)GlcNAc
# Method in brief: as §1
# [23] = target: Neu5Ac(a2-3)Gal(b1-4)GlcNAc(b1-3)Gal(b1-4)[Fuc(a1-3)]GlcNAc
# Method in brief: as §1
# [24] = target: Neu5Ac(a2-3)Gal(b1-4)GlcNAc(b1-6)[Gal(b1-3)]GalNAc
# Method in brief: as §1
# [25] = target: Neu5Ac(a2-3)Gal(b1-4)GlcNAc(b1-6)[Neu5Ac(a2-3)Gal(b1-3)]GalNAc
# Method in brief: as §1
# [26] = target: Neu5Ac(a2-3)Gal(b1-4)GlcNAc6S
# Method in brief: as §1
# [27] = target: Neu5Ac(a2-3)Gal(b1-4)[Fuc(a1-3)]GlcNAc
# Method in brief: as §1
# [28] = target: Neu5Ac(a2-3)Gal(b1-4)[Fuc(a1-3)]GlcNAc(b1-3)Gal
# Method in brief: as §1
# [29] = target: Neu5Ac(a2-3)Gal(b1-4)[Fuc(a1-3)]GlcNAc(b1-3)Gal(b1-4)GlcNAc
# Method in brief: as §1
# [30] = target: Neu5Ac(a2-3)Gal(b1-4)[Fuc(a1-3)]GlcNAc(b1-3)Gal(b1-4)[Fuc(a1-3)]GlcNAc(b1-3)Gal(b1-4)[Fuc(a1-3)]GlcNAc
# Method in brief: as §1
# [31] = target: Neu5Ac(a2-3)Gal(b1-4)[Fuc(a1-3)]GlcNAc(b1-6)[Gal(b1-3)]GalNAc
# Method in brief: as §1
# [32] = target: Neu5Ac(a2-3)Gal(b1-4)[Fuc(a1-3)]GlcNAc6S
# Method in brief: as §1
# [33] = target: Neu5Ac(a2-3)Gal6S(b1-4)GlcNAc
# Method in brief: as §1
binder,measurement,setting,value
B1,glycan array binding signal (z-score),[1],4.71
same,glycan array binding signal (z-score),[2],4.73
same,glycan array binding signal (z-score),[3],4.2
same,glycan array binding signal (z-score),[4],3.67
same,glycan array binding signal (z-score),Man(a1-6)Man,0.67
same,glycan array binding signal (z-score),Man(b1-4)GlcNAc,0.278
same,glycan array binding signal (z-score),Neu5Ac(a2-3)Gal,-0.276
same,glycan array binding signal (z-score),[5],-0.247
same,glycan array binding signal (z-score),[6],-0.268
same,glycan array binding signal (z-score),[7],-0.242
same,glycan array binding signal (z-score),[8],-0.254
same,glycan array binding signal (z-score),[9],-0.273
same,glycan array binding signal (z-score),[10],-0.273
same,glycan array binding signal (z-score),[11],-0.234
same,glycan array binding signal (z-score),[12],-0.169
same,glycan array binding signal (z-score),[13],-0.272
same,glycan array binding signal (z-score),[14],0.08
same,glycan array binding signal (z-score),[15],-0.264
same,glycan array binding signal (z-score),[16],-0.245
same,glycan array binding signal (z-score),Neu5Ac(a2-3)Gal(b1-4)Glc,-0.228
same,glycan array binding signal (z-score),[17],-0.265
same,glycan array binding signal (z-score),[18],-0.265
same,glycan array binding signal (z-score),[19],-0.275
same,glycan array binding signal (z-score),[20],-0.266
same,glycan array binding signal (z-score),[21],-0.269
same,glycan array binding signal (z-score),[22],-0.095
same,glycan array binding signal (z-score),[23],-0.237
same,glycan array binding signal (z-score),[24],-0.265
same,glycan array binding signal (z-score),[25],-0.27
same,glycan array binding signal (z-score),[26],-0.256
same,glycan array binding signal (z-score),[27],-0.204
same,glycan array binding signal (z-score),[28],-0.275
same,glycan array binding signal (z-score),[29],-0.228
same,glycan array binding signal (z-score),[30],0.115
same,glycan array binding signal (z-score),[31],-0.178
same,glycan array binding signal (z-score),[32],-0.242
same,glycan array binding signal (z-score),[33],-0.273

# From the supplement of paper PMC8728848
